This is an account of results in article PMC4336329 (PLoS ONE, 2015).

The campaign covered roughly 310,000 compounds. About 2,200 (0.71%) showed an effect of 50% or more. The effect is printed as a negative number. This is one part of the list.

The target of this experiment is human ether-à-go-go-related gene (hERG) potassium channel (human, UniProt Q12809). The experiment is described as follows: primary screen, population patch clamp on CHO cells stably expressing hERG.
Chain of human ether-à-go-go-related gene (hERG) potassium channel (Q12809 whole entry, looked up): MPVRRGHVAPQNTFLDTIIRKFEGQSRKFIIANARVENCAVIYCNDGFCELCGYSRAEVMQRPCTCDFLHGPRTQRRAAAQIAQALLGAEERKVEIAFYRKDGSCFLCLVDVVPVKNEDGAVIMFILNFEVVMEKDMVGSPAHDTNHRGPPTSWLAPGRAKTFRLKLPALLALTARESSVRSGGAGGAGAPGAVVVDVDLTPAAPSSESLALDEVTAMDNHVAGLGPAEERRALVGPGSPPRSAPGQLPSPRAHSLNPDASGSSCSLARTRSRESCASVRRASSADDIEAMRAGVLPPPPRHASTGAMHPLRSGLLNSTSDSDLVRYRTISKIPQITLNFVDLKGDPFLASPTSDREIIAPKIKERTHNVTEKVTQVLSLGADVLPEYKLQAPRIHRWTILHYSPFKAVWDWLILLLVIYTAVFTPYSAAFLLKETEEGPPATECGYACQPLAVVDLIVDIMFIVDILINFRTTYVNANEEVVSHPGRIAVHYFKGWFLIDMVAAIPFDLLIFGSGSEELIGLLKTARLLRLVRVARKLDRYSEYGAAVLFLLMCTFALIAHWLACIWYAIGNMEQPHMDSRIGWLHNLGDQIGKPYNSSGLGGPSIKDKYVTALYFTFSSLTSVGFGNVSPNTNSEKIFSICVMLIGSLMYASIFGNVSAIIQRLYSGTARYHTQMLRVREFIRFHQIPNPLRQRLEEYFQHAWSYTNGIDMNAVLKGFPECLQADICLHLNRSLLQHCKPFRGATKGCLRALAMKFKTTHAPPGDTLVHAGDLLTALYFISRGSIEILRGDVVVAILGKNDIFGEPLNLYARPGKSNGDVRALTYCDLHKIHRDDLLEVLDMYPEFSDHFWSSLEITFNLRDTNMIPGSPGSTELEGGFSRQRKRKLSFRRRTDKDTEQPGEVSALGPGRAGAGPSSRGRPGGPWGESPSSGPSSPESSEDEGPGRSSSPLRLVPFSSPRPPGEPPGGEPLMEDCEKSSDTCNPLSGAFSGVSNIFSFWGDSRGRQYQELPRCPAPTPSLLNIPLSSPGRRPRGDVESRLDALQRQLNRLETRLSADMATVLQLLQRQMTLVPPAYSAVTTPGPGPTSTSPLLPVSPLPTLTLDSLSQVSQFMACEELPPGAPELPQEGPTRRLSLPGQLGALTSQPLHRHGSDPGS
For the compound `CCCc1sc(N/N=C/c2ccccn2)nc1-c1ccc(Br)cc1`, the “hERG current change (%, negative = inhibition) at 1uM” value is 6.14%. Consider `CC1CCN(C(=O)CSc2nnc3c(n2)[nH]c2ccccc23)CC1`, for which the “hERG current change (%, negative = inhibition) at 1uM” value is listed as 7.11%. In the case of `O=C(Nc1ccccc1C(=O)N1CCN(Cc2ccccc2)CC1)c1ccc(F)cc1`, the “hERG current change (%, negative = inhibition) at 1uM” value was -6.84%. Turning to `O=C1CN(S(=O)(=O)c2ccc(Cl)cc2)CC(=O)N1CCc1ccccc1`, the “hERG current change (%, negative = inhibition) at 1uM” value is on record as 8.9%. Turning to `Cn1ccnc1SCC(=O)Nc1cccc([N+](=O)[O-])c1`, the “hERG current change (%, negative = inhibition) at 1uM” value came out at 6.96%.

In the case of `CCn1c(-c2ccccc2)ccc(C#N)c1=O`, the “hERG current change (%, negative = inhibition) at 1uM” value was 3.55%. On to `CCN(C(=O)COC(=O)c1c(-c2ccccc2)noc1C)C1CCS(=O)(=O)C1` (stereo not drawn), for which the “hERG current change (%, negative = inhibition) at 1uM” value is given as -10.7%. As to `Cc1c(NC(C)c2ccccc2O)c(=O)n(-c2ccccc2)n1C` (stereo not drawn), the “hERG current change (%, negative = inhibition) at 1uM” value amounted to 10.2%. In the case of `Cc1ccc(NC(=O)N/C=C/c2ccccc2)cc1`, the “hERG current change (%, negative = inhibition) at 1uM” value is on record as 13.1%.

On to `COc1ccc(NC(=O)Nc2ccc(Br)cn2)cc1`, for which the “hERG current change (%, negative = inhibition) at 1uM” value came to 17.2%. Then `O=C(CSc1nnc(-c2cccs2)o1)N1CCCCC1`, with 7.04%; and `CCOc1ccc(C2C(C(=O)OC)=CN(CCOC)C=C2C(=O)OC)cc1`, with 7.84%; and `COCCNC(=S)N1CCN(C/C=C/c2ccccc2)CC1`, with 28.8%. For `COc1ccc(CCNc2ccc(S(N)(=O)=O)cn2)cc1`, the “hERG current change (%, negative = inhibition) at 1uM” value is 16%. On to `CC1(C)OC(c2ccccc2)=C/C(=C/C=C2C(=O)NC(=S)NC2=O)O1`, for which the “hERG current change (%, negative = inhibition) at 1uM” value came out at 2.1%. Then `COc1ccc(Nc2cc(Nc3ccc(OC)cc3)ncn2)cc1`, with 7.83%; and `Cn1c(=O)c2c(nc(CN3CCN(C(c4ccccc4)c4ccccc4)CC3)n2CCCO)n(C)c1=O`, with 9.79%; and `Cc1nn(-c2ccccc2)c(C)c1Cc1ccc(O)cc1`, with 12.3%. Consider `CCc1ccc(CNC(=O)Cc2ccc(NC(=O)C3=C(C)OCCS3)cc2)cc1`, for which the “hERG current change (%, negative = inhibition) at 1uM” value came out at 25.4%. For `Cc1nnc(CN(C)C(=O)c2cc(COc3ccc(F)cc3Cl)on2)o1`, the “hERG current change (%, negative = inhibition) at 1uM” value is reported as 3.7%. With `CCC(O)c1cc2c(cc1NC(=O)c1cccs1)OCCO2` (stereo not drawn), the “hERG current change (%, negative = inhibition) at 1uM” value is on record as 5.82%.

With `Cc1ccccc1C(=O)Nc1cccc(C(=O)Nc2ccccc2C(=O)O)c1`, the “hERG current change (%, negative = inhibition) at 1uM” value is listed as 14.1%.

As to `COc1ccc(NC(=O)CCCN2C(=O)C3C4C=CC(C4)C3C2=O)c(OC)c1` (stereo not drawn), the “hERG current change (%, negative = inhibition) at 1uM” value came to 1.46%. With `CCOc1cc(/C=N/NC(=O)c2cc3c(ccc4ccccc43)o2)ccc1O`, the “hERG current change (%, negative = inhibition) at 1uM” value is listed as 14.3%. Take `Cc1cccc(C)c1OCc1cc(C(=O)NCC2CC2)no1`: the “hERG current change (%, negative = inhibition) at 1uM” value was 10.8%. Consider `Cc1cc(NC(=O)C2CC(=O)N(c3cccc(C)c3C)C2)no1` (stereo not drawn), for which the “hERG current change (%, negative = inhibition) at 1uM” value is recorded as 6.32%. Then `COc1ccc2[nH]cc(CCNC(=O)Nc3ccccc3)c2c1`, with 16.2%; and `Cc1ccc(-n2ncc(C(=O)Nc3cc(Cl)ccc3C)c2C2CCNCC2)cc1C.Cl`, with 0.625%; and `O=C(CSc1n[nH]c(-c2ccccc2O)n1)N1CCCc2ccccc21`, with 18.3%. In the case of `Cc1c(C)c2c(OCC(=O)NCc3ccco3)cc3c(c2oc1=O)CCC(C)(C)O3`, the “hERG current change (%, negative = inhibition) at 1uM” value was 14.2%. As for `Cn1c(SCc2ccccc2)nc(N)c(N=O)c1=O`, the “hERG current change (%, negative = inhibition) at 1uM” value is reported as -6.82%. As for `CCOc1ccccc1N1CCN(C(=O)c2ccc(S(=O)(=O)Nc3ccccc3)cc2)CC1`, the “hERG current change (%, negative = inhibition) at 1uM” value was 20.4%. Take `COc1ccc(NS(=O)(=O)c2ccc(OC)c(OC)c2)cc1OC`: the “hERG current change (%, negative = inhibition) at 1uM” value was 17.3%. In the case of `O=C(N/N=C/c1cccnc1)c1ccc(NC(=O)c2ccc(F)cc2)cc1`, the “hERG current change (%, negative = inhibition) at 1uM” value is recorded as 12.5%. With `CCOC(=O)c1[nH]c2c(c1C)C(=O)CC(c1ccco1)C2` (stereo not drawn), the “hERG current change (%, negative = inhibition) at 1uM” value came to 4.54%. Turning to `C=CCn1c(SCC(=O)NC(=O)c2cccc([N+](=O)[O-])c2)nnc1-c1ccccc1F`, the “hERG current change (%, negative = inhibition) at 1uM” value worked out at 11.3%. In the case of `Cc1nn(-c2ccccc2)c2c1C1(C(=O)N(C(C)C)c3ccccc31)C(C#N)=C(N)O2` (stereo not drawn) it was 3.34%; in that of `CCOc1ccc(C(=O)NC(=S)Nc2cccc(S(=O)(=O)NC3=NCCC3)c2)cc1`, 6.67%; in that of `COc1ccc(CCN2C(=O)CC(NNC(=O)c3cccc(O)c3)C2=O)cc1` (stereo not drawn), 9.76%. Take `CC(C)C(NC(=O)c1ccccc1)C(=O)OCC(=O)N1CCCC1` (stereo not drawn): the “hERG current change (%, negative = inhibition) at 1uM” value was determined as 5.16%. Then `CCN(CC(=O)Nc1ccc(OC)cc1)CC(=O)Nc1sc2c(c1C(=O)OC)CCCC2`, with 9.08%. On to `Cc1ccc(C)c(OCC(=O)Nc2cc(NC(=O)COc3cc(C)ccc3C)cc(C(=O)O)c2)c1`, for which the “hERG current change (%, negative = inhibition) at 1uM” value stood at 17.7%. `CCOC(=O)c1c(C)[nH]c(C(=O)OCc2c(C)noc2C)c1C`: the “hERG current change (%, negative = inhibition) at 1uM” value amounted to 11.2%. For the compound `Cc1nn(CCCC(=O)NCCc2ccccc2)c(C)c1[N+](=O)[O-]`, the “hERG current change (%, negative = inhibition) at 1uM” value was -1.22%.

With `CCOc1ccc(NC(=O)C(C)Oc2ccc(C#N)cc2)cc1S(=O)(=O)N1CCCC1` (stereo not drawn), the “hERG current change (%, negative = inhibition) at 1uM” value is -0.263%. As for `COc1ccc(S(=O)(=O)N2CCC(n3cnc4ccccc43)CC2)cc1`, the “hERG current change (%, negative = inhibition) at 1uM” value is given as -6.31%.

Turning to `Cc1ccc(NC2c3ncccc3C(=O)N2c2ccccc2C)cc1C` (stereo not drawn), the “hERG current change (%, negative = inhibition) at 1uM” value turned out to be 14.4%. For the compound `COc1cccc(C(=O)NCc2ccc3c(c2)cc(C)n3C)c1`, the “hERG current change (%, negative = inhibition) at 1uM” value turned out to be 15%. As to `Cc1csc(SCC(=O)NC(=O)NC(C)(C)C)n1`, the “hERG current change (%, negative = inhibition) at 1uM” value was 11.5%.

Take `CC(C)(C)c1ccc(-c2noc(C(=O)NN)n2)cc1`: the “hERG current change (%, negative = inhibition) at 1uM” value is reported as 13.4%. For the compound `NC(=O)C1CCN(C(=O)CCNS(=O)(=O)c2ccccc2F)CC1`, the “hERG current change (%, negative = inhibition) at 1uM” value amounted to 5.35%. In the case of `Cc1nc2c(C(=O)NCc3ccc4c(c3)OCO4)cnn2c(C)c1Cc1ccc(F)cc1Cl` it was -8.71%; in that of `Cc1ccc(C)c(NC(=S)NCCc2cnc[nH]2)c1`, 9.12%.

Regarding `O=C(Nc1ccccn1)c1ccc2ccccc2n1`, the “hERG current change (%, negative = inhibition) at 1uM” value turned out to be 3.73%.

`C/C(CC(=O)Nc1ccccn1)=N\NC(=O)c1ccc2ccccc2c1`: the “hERG current change (%, negative = inhibition) at 1uM” value turned out to be 16.2%. Turning to `CCOc1ccc(S(=O)(=O)NCCCl)cc1`, the “hERG current change (%, negative = inhibition) at 1uM” value amounted to 11.6%. As for `CC1=NN(C(=O)COc2ccc(C)c(C)c2)C(O)(c2ccc(Cl)cc2)C1` (stereo not drawn), the “hERG current change (%, negative = inhibition) at 1uM” value is given as 5.76%.
